# In the supplement of paper PMC10369915:
# The other results are listed elsewhere or left out. No stated cut-off is given here; in the data, active = 3.2 or more and inactive = the rest. Only a few entries rise above the background.
# Key:
# Experiment in all cases: enrichment score (SH2-bound / input frequency) (ratio); bacterial display of known human phosphotyrosine sites (pTyr-Var adds point mutants) read by sequencing; higher = stronger binding; tyrosines were phosphorylated by kinases first
# Details in all cases: peptide library: Human pTyr
# SHP2 C-SH2 domain E139D = target: SHP2 C-SH2 domain E139D
# [1] = target: SHP2 C-SH2 domain wild-type
# SHP2 N-SH2 domain L43F = target: SHP2 N-SH2 domain L43F
# SHP2 N-SH2 domain T42A = target: SHP2 N-SH2 domain T42A
# SHP2 N-SH2 domain T52S = target: SHP2 N-SH2 domain T52S
# [2] = target: SHP2 N-SH2 domain wild-type
# 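Further: displayed peptides selected on beads carrying the immobilized SH2 domain, with library peptides lacking any tyrosine serving as negative controls.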
Binder,enrichment score (SHP2 C-SH2 domain E139D),enrichment score [1],enrichment score (SHP2 N-SH2 domain L43F),enrichment score (SHP2 N-SH2 domain T42A),enrichment score (SHP2 N-SH2 domain T52S),enrichment score [2]
AASGGAAYTKRALEE [THRAP3_HUMAN_344_YA],inactive: 0.581,inactive: 0.592,inactive: 0.845,inactive: 0.632,inactive: 0.723,inactive: 0.733
EDPMASMYAKLQNQP [STAM1_HUMAN_384_YA],inactive: 1.58,active: 4.14,inactive: 0.676,inactive: 0.836,inactive: 0.634,inactive: 0.589
MQQCDSPYVVKAAGS [STK3_HUMAN_81_YA],inactive: 1.86,inactive: 1.42,inactive: 1,inactive: 0.923,inactive: 1.06,inactive: 1.32
AGVEDPEYAVTQLAQ [STML2_HUMAN_124_YA],inactive: 0.742,inactive: 0.528,inactive: 0.594,inactive: 0.904,inactive: 0.571,inactive: 0.71
KVSSTHYYLLPERPS [TNK2_HUMAN_860],inactive: 1.59,inactive: 2.78,inactive: 1.47,inactive: 1.52,inactive: 1.47,inactive: 1.98
KSGDRSGYSSPGSPG [TAU_HUMAN_514],inactive: 0.875,inactive: 0.69,inactive: 0.61,inactive: 0.781,inactive: 0.785,inactive: 0.66
EPMDENCYEQMKARP [TRAT1_HUMAN_79],inactive: 0.957,inactive: 0.765,inactive: 0.836,inactive: 0.769,inactive: 1.05,inactive: 1.17
KTLVMAIYDFDRFSK [SYT2_HUMAN_227],inactive: 2.76,inactive: 2.42,inactive: 2.58,inactive: 2.42,inactive: 3.15,active: 3.3
YGAGRGNYDAFRGQG [SRRT_HUMAN_836],inactive: 0.886,inactive: 0.707,inactive: 0.76,inactive: 0.944,inactive: 0.936,inactive: 0.848
EITEEQYYMMRRYES [THEMIS_HUMAN_541],inactive: 2.25,inactive: 2.03,inactive: 2.09,inactive: 2.32,inactive: 2.2,inactive: 2.6
DDLEDELYAQKLKAK [TPM1_HUMAN_261_YA],inactive: 0.803,inactive: 0.66,inactive: 0.738,inactive: 0.778,inactive: 0.84,inactive: 0.947
CGAYPYAYPPMPAMV [TNIP1_HUMAN_552],inactive: 1.32,inactive: 1.25,inactive: 1.04,inactive: 1.11,inactive: 1.43,inactive: 1.55
VLEALELYNKLVNEA [STAM2_HUMAN_361],inactive: 0.838,inactive: 0.698,inactive: 0.8,inactive: 0.594,inactive: 0.607,inactive: 0.795
IATDPGLYQMLPRFS [TAF6_HUMAN_253],inactive: 0.729,inactive: 0.569,inactive: 0.773,inactive: 0.68,inactive: 0.614,inactive: 0.599
AASGGAAYTKRYLEE [THRAP3_HUMAN_344],inactive: 0.808,inactive: 0.719,inactive: 0.857,inactive: 0.85,inactive: 0.911,inactive: 0.925
CGAAPAAYPPMPAMV [TNIP1_HUMAN_552_YA],inactive: 1.27,inactive: 1.1,inactive: 1.14,inactive: 1.25,inactive: 1.31,inactive: 1.39
EPANAGKYTCQIKND [TITIN_HUMAN_8490],inactive: 1.21,inactive: 1.09,inactive: 0.816,inactive: 0.984,inactive: 1.33,inactive: 1.03
AKPDSSFYKGLDLNG [B3AT_HUMAN_359],inactive: 0.85,inactive: 0.738,inactive: 0.935,inactive: 0.957,inactive: 1.08,inactive: 0.732

Binder,enrichment score (SHP2 C-SH2 domain E139D),enrichment score [1],enrichment score (SHP2 N-SH2 domain L43F),enrichment score (SHP2 N-SH2 domain T42A),enrichment score (SHP2 N-SH2 domain T52S),enrichment score [2]
DQRGQSIYSTSFPQP [TMIG2_HUMAN_222],inactive: 0.657,inactive: 0.56,inactive: 0.602,inactive: 0.644,inactive: 0.565,inactive: 0.712
EPEEDLEYFECSNVP [TACC1_HUMAN_533],inactive: 1.48,inactive: 1.46,inactive: 1.49,inactive: 1.06,inactive: 1.94,inactive: 1.66
AREKLALYVYEYLLH [SSBP3_HUMAN_23],inactive: 2.57,inactive: 2.65,inactive: 2.89,inactive: 2.5,inactive: 3.01,active: 3.49
TKEAEESYMMAKSLM [TMTC3_HUMAN_503],inactive: 0.513,inactive: 0.575,inactive: 0.561,inactive: 0.654,inactive: 0.723,inactive: 0.652
SGARLGEYEDVSRVE [TBCB_HUMAN_98],inactive: 0.629,inactive: 0.528,inactive: 0.658,inactive: 0.658,inactive: 0.831,inactive: 0.715
VLQSLHKYQPRLHIV [TBX21_HUMAN_266],inactive: 2.85,inactive: 2.73,inactive: 2.63,inactive: 2.09,inactive: 2.57,active: 3.76
DGPKGTGYIKTELIS [STAT1_HUMAN_701],inactive: 0.775,inactive: 0.73,inactive: 0.913,inactive: 0.806,inactive: 0.825,inactive: 0.849
KDEVFSKYATPVLAK [STA5A_HUMAN_682_YA],inactive: 1.32,active: 3.72,inactive: 1.16,inactive: 0.861,inactive: 0.804,inactive: 0.977
ERSTSAGYSRSRSGS [SRSF9_HUMAN_192_YA],inactive: 0.961,inactive: 1.19,inactive: 0.951,inactive: 0.827,inactive: 0.927,inactive: 1.16
VAQGNENYAGIAARD [TLN1_HUMAN_1116],inactive: 0.744,inactive: 0.706,inactive: 0.751,inactive: 0.591,inactive: 0.629,inactive: 0.65
GSHRLSIYEDWDPFR [TIAM1_HUMAN_1323],inactive: 0.872,inactive: 0.751,inactive: 0.633,inactive: 0.819,inactive: 0.898,inactive: 0.847
DPGSAAPYLKTKFIC [STAT3_HUMAN_705],inactive: 1.48,inactive: 1.96,inactive: 1.03,inactive: 1.33,inactive: 1.4,inactive: 1.78
AIPSNTDYPGPHSFD [TP63_HUMAN_171],inactive: 0.556,inactive: 0.433,inactive: 0.607,inactive: 0.599,inactive: 0.442,inactive: 0.486
DIPGPGFYNVIHQSP [STPG1_HUMAN_72],inactive: 0.698,inactive: 0.64,inactive: 0.838,inactive: 0.788,inactive: 0.78,inactive: 0.8
AKNLDKEYLPIGGLA [AATM_HUMAN_96],inactive: 0.682,inactive: 0.677,inactive: 0.704,inactive: 0.965,inactive: 0.924,inactive: 0.775
DGPRSPSYGRSRSRS [SRSF1_HUMAN_202],inactive: 0.737,inactive: 0.829,inactive: 0.841,inactive: 0.64,inactive: 0.85,inactive: 0.507
GGGGMSEYIRVTEDE [TARDBP_HUMAN_4],inactive: 0.935,inactive: 0.593,inactive: 0.642,inactive: 0.738,inactive: 0.738,inactive: 0.676
DAESKTSYGWIEIVG [SYG_HUMAN_453],inactive: 1.17,inactive: 1.25,inactive: 1.22,inactive: 1.19,inactive: 1.32,inactive: 1.54
